We go through 69 molecules from PubChem BioAssay AID488969 (Vanderbilt High Throughput Screening Facility, 2010).

The structures appear in SMILES notation. In all, about 110,000 compounds were measured (“z-score”: median about -0.1, highest 2% from about 2 on). The list shows a part of the results. The source made the active and inactive calls.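 Rule for the calls: active = z-score in the third read window above 3 or below -3; inactive = the rest.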

The experiment concerns the target Metabotropic glutamate receptor 8 (Rattus norvegicus) (UniProt P70579). Put plainly: mGluR8 Gi/Go-coupled signaling modulation – cell-based, rat, thallium flux, HTS, primary screen (AID 488969). The note with it: HEK293 rat mGluR8, GIRK (G protein-gated inwardly rectifying potassium channel) thallium flux, FluoZin2; at 10 µM; stronger effect = higher value; submaximal glutamate (EC20) added with thallium.
Chain of UniProt P70579 (P70579 whole entry, looked up): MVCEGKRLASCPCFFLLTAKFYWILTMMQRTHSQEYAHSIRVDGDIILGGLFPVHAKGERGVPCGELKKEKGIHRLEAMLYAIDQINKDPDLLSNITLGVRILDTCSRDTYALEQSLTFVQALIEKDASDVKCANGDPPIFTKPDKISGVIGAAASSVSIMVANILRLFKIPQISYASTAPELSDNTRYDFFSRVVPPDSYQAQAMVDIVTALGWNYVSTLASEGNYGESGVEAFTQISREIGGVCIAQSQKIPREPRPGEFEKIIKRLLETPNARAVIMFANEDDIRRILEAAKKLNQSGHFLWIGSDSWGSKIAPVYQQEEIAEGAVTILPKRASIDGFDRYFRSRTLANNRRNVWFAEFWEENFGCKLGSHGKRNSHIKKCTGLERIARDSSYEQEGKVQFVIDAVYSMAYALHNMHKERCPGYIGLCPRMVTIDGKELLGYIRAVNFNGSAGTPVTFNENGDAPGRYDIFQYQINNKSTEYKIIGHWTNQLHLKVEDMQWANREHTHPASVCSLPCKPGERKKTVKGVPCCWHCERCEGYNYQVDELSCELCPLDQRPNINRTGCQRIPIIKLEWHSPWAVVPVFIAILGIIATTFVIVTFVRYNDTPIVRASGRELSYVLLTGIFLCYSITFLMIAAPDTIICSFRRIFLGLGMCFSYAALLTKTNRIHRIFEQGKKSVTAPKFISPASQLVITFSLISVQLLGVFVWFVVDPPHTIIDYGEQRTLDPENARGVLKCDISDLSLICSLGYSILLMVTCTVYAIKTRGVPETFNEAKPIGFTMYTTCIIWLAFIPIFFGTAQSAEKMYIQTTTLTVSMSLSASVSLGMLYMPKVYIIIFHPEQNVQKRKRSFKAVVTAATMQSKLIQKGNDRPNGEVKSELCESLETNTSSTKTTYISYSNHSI
Molecule `COc1cccc2c1OC1(C)CC2NC(=O)N1c1cccc(C(=O)Nc2ccc3c(c2)OCCO3)c1` (centres undefined) registered a z-score of -0.366. On to `O=C(CN1CCN(Cc2ccc(Cl)cc2)C1=O)NCCCN1CCOCC1`, for which the z-score was -0.145. Take `CCc1ccc(C(=O)c2oc3nc(C)cc(C)c3c2N)cc1`: the z-score was -0.335. Regarding `Cn1c2ccccc2c(=O)c2c(=O)n(Cc3ccco3)c(COc3ccccc3)nc21`, the z-score was -0.461. Then `CCOC(=O)c1c(-c2ccc(C)cc2)csc1NC(=O)/C(C#N)=C/c1ccc(O)c(OC)c1`, with -0.0776. Then `COc1ccc(OC)c(C(=O)c2ccccc2)c1`, with -1.47; and `CCOC(=O)C1CCCN(Cc2c(Cl)cccc2Cl)C1` (centres undefined), with -0.186; and `CN1CCN(C2=Cc3ccccc3Sc3cc(F)c(Cl)cc32)CC1`, with -0.0621. `COc1ccc(C(=O)Nc2ccccc2C(=O)NCCCn2ccnc2)cc1`: the z-score is -0.0976. Then `COc1cc2c(cc1NC(=O)c1ccc(C(C)(C)C)cc1)CCCC2`, with -0.385; and `CCOC(=O)c1cc2sc(C)cc2n1CC(=O)NCCc1ccccc1`, with -0.751. As for `Cc1ccc(NC(=O)N2CCc3ccccc32)cc1`, the z-score was 1.99. In turn, `CCC1(C)Cc2c(sc3nnn(CC(=O)Nc4cccc5ccccc45)c(=O)c23)CO1` (centres undefined) displayed a z-score of -0.452.

`c1ccc2c(CNc3ccc(CNc4ncn[nH]4)cc3)cccc2c1` yielded a z-score of -0.0802.

In the case of `COC(=O)Nc1nc(C)c(C(=O)N(C)C)s1`, the z-score was active: 4.58. Turning to `O=C(CN(C1CCCCC1)C1CCCCC1)N1CCc2ccccc2C1`, the z-score is -0.377.

`Cc1sc2ncn(CC(=O)NCCCC(=O)N3CCN(c4ccccn4)CC3)c(=O)c2c1C` came in with a z-score of 0.263.

Turning to `O=C1CC(C(F)(F)C(F)(F)C(F)(F)F)=Nc2ccccc2N1`, the z-score is active: 3.4.

Molecule `COc1ccc(S(=O)(=O)Nc2nc(C(F)(F)F)cs2)cc1` returned a z-score of -0.797. `COC(=O)Cc1c[nH]c2cccc(OCC(O)CN(Cc3ccc([N+](=O)[O-])cc3)C(C)(C)C)c12` (centres undefined) yielded a z-score of 1.04.

Consider `O=c1c2ccccc2nc2n1C(CSc1ccc(F)cc1)CN2` (centres undefined), for which the z-score is 0.00129. Then `Cc1ccc2cccc(SCC(=O)N3CCOCC3)c2n1`, with 0.307; and `COC(=O)COc1nc(C)c(Br)c(OC)n1`, with 0.126; and `CCn1c(CCNC(=O)c2ccc(OC)cc2)nnc1SCc1ccc(Cl)c(Cl)c1`, with -0.202. In turn, `Cc1ccc(-c2noc(CCC(=O)NCCN3CCOCC3)n2)cc1` had a z-score of -0.472. Turning to `CCC(=O)c1ccc(OCc2ccccc2)c(OC)c1`, the z-score worked out at 0.113. Then `Cc1nc(C(=O)Nc2cc(Cl)ccc2Cl)nn1-c1cc(OC(C)C)c(Cl)cc1Cl`, with 0.0518. As to `CC(C)OC(=O)Cn1c(=O)oc2ccccc21`, the z-score is -0.391.

`CSc1nc2c(ccc3ccccc32)o1` returned a z-score of -0.263. As to `NC(=O)c1ccc(N=Cc2ccc([N+](=O)[O-])s2)cc1`, the z-score is -0.21. With `Cc1cc(=O)oc(C)c1C(=O)NCc1ccccc1`, the z-score is -0.442.

For the molecule `Cc1ccc2[nH]c3c(c2c1)CCCC3C(N)=O` (centres undefined), the z-score was -0.181. `CC1(C)NC(=O)N(CC(=O)OCC(=O)Nc2cccc(F)c2)C1=O` yielded a z-score of -0.0741.

Take `Cc1cc(C2C(C#N)=C(N)OC3=C2C(=O)CCC3)c(C)s1` (centres undefined): the z-score was -1.07.

Turning to `COC(=O)c1ccc(C(=S)N2CCOCC2)cc1`, the z-score was -0.0562. `COc1ccc(N2CCN(C(=O)c3ccc(OCc4c(C)noc4C)c(OC)c3)CC2)cc1` showed a z-score of -0.119. The molecule `Cc1nn(Cc2ccc(C(=O)NC3CCCCC3)o2)c(C)c1Br` registered a z-score of -0.209. Then `Cc1cc(C)nc(-n2ncc3c2CC(c2ccccc2C)CC3=O)n1` (centres undefined), with -0.318. For the molecule `CN(C(=O)COC(=O)CCc1c[nH]c2ccccc12)C(c1ccccc1)c1ccccc1`, the z-score is -0.123. Molecule `Cc1cc(/C=N/NC(=O)C(O)(c2ccccc2)c2ccccc2)c(C)n1-c1ccc(C(=O)O)cc1` registered a z-score of 0.0759. `CON(C)c1nc(OCCNC(=O)OCc2ccc(Cl)cc2Cl)nc(N(C)C)n1` displayed a z-score of -0.113.

Take `O=C(CSc1nc2c(c(C(F)(F)F)n1)CCc1ccccc1-2)NCc1ccccc1`: the z-score turned out to be 0.257. For the molecule `Cc1ccc(NC(=O)c2ccc(-n3cncn3)c([N+](=O)[O-])c2)cc1`, the z-score is -0.224.

Molecule `CCCCC(=O)Nc1cccc(-c2nnc(-c3ccccc3)o2)c1` showed a z-score of -0.705. With `CN(/N=C/c1ccc(O)cc1O)c1nc(-c2ccccc2)cc(-c2ccccc2)n1`, the z-score came out at 0.141. Under `COc1ccc(OCC(=O)N2CCN(C(=O)COc3ccc(Br)cc3)CC2)cc1` stands -0.254.

In turn, `COc1cc(CN(C(=S)NCC(=O)NC2CC2)C2CCCC2)cc(OC)c1OC` came in with a z-score of -0.186. Molecule `O=S(=O)(c1ccc(Cl)nc1)N1CCN(Cc2ccc3c(c2)OCO3)CC1` displayed a z-score of 0.0696. Then `CC(=O)Oc1ccc2ccccc2c1C(NC(=O)Cc1ccccc1)c1ccccc1Cl` (centres undefined), with -0.387. For the molecule `COc1ccc(N2C(=O)C3CCCN3C2c2ccccc2OC)cc1` (centres undefined), the z-score is 0.306. Regarding `Cc1cccc(C(=O)N2CCN(Cc3ccc4c(c3)OCO4)CC2)c1`, the z-score is -0.0762. Regarding `CC(C)NC(=O)C(=O)NC1CCCCCC1`, the z-score was -0.349. On to `S=c1[nH]cc(-c2ccccc2)n1-c1ccccc1Cl`, for which the z-score came out at 0.447.

`Cc1cc(C)cc(N(CC(=O)Nc2ccccc2-c2ccccc2)S(=O)(=O)c2ccccc2)c1` returned a z-score of -0.375. Then `CC(Oc1ccc(-c2ccccc2)c(F)c1)c1ccn(S(=O)(=O)c2ccc(F)cc2)n1` (centres undefined), with -0.221. For the molecule `CCc1ccc2nc(SCC(=O)N3CCCCC3)c(C#N)cc2c1`, the z-score amounted to 0.28. Under `Cn1cccc1Cc1nnc(SCC(N)=O)n1-c1ccc(F)cc1` stands 0.456. In turn, `N#C/C(=C/c1ccc(Oc2ccc([N+](=O)[O-])cn2)cc1)C(=O)N1CCOCC1` showed a z-score of -0.092. As to `CCOC(=O)c1[nH]c(C)c(C(=O)Nc2ccc(C)c(C)c2)c1C`, the z-score is -0.109. For the molecule `CCC1Sc2ccccc2N(CC(=O)NC2CCCC2)C1=O` (centres undefined), the z-score was -0.184. Under `CCCS(=O)(=O)c1c(S(=O)(=O)CCC)c2c(N)cccn2c1C(=O)c1ccc(Br)cc1` stands -0.206; under `O=C(CCCCCn1c(=S)[nH]c2cc3c(cc2c1=O)OCO3)N1CCN(C(=O)c2ccco2)CC1`, -0.209; under `CCN1CCN(c2cc(C)c3cc(NC(=O)c4cccnc4Cl)ccc3n2)CC1`, 0.405. `O=C(Cc1ccccc1)NCC(=O)OCC(=O)c1cccs1` showed a z-score of -0.289. `COc1cc(OC)cc(C(=O)NCCCN2CCOCC2)c1` yielded a z-score of -0.0617. Under `O=C(Nc1ccc2c(c1)OCO2)C1CC(c2ccccc2Cl)=NO1` (centres undefined) stands -0.418; under `CCOC(=O)Nc1sc(C)c(C)c1C(=O)OCC`, 0.104. Regarding `Cc1cccc2cc(CN(CC3CCCO3)C(=S)Nc3ccccc3)c(=O)[nH]c12` (centres undefined), the z-score is -0.146. Under `Cc1ccc(NC(=O)CN(C)S(=O)(=O)c2cccs2)cc1C` stands 0.632.
